# This is one part of the list.
# B1: FimD (Bordetella pertussis) (protein)
# chain: MPARVISFCGAALAVWAGLAVQPAMAVDPPVDCGRALGLHFWSSASLISDQTPDGTLIGKPVVGRSLLSKSCKVPDDIKEDLSDNHDGEPVDIVLELGSNYKIRPQSYGHPGIVVDLPFGSTEETGIAIYIDFGSSPMQKVGERQWLYPQKGEVLFDVLTINGDNAEVRYQAIKVGPLKRPRKLVLSQFPNLFTYKWVFMRGTSQERVLAQGTIDTDVATSTIDLKTCRYTSQTVSLPIIQRSALTGVGTTLGMTDFQMPFWCYGWPKVSVYMSATKTQTGVDGVALPATGQAAGMASGVGVQLINGKTQQPVKLGLQGKIALPEAQQTESATFSLPMKAQYYQTSTSTSAGKLSVTYAVTLNYD
# Tests used:
# Test in all cases: glycan array binding signal (z-score within array); higher = stronger binding
# Conditions in all cases: glycan notation: IUPAC condensed, linker removed
# [1] = biological target: Gal(b1-4)GlcNAc(b1-3)Gal(b1-4)GlcNAc(b1-3)Gal(b1-4)GlcNAc(b1-3)Gal(b1-4)GlcNAc(b1-2)Man(a1-3)[Gal(b1-4)GlcNAc(b1-3)Gal(b1-4)GlcNAc(b1-3)Gal(b1-4)GlcNAc(b1-3)Gal(b1-4)GlcNAc(b1-2)Man(a1-6)]Man(b1-4)GlcNAc(b1-4)[Fuc(a1-6)]GlcNAc
# In short: (§1)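 The Consortium for Functional Glycomics database supplied 3228 glycan arrays, of which those lacking an available protein sequence were dropped. The binding signal, a within-array Z-score, was averaged across arrays of the same protein sequence and across linkers. Negative scores can be read as non-binding.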
# [2] = biological target: Gal(b1-4)GlcNAc(b1-3)Gal(b1-4)GlcNAc(b1-3)Gal(b1-4)GlcNAc(b1-3)Gal(b1-4)GlcNAc(b1-2)[Gal(b1-4)GlcNAc(b1-3)Gal(b1-4)GlcNAc(b1-3)Gal(b1-4)GlcNAc(b1-3)Gal(b1-4)GlcNAc(b1-6)]Man(a1-6)[Gal(b1-4)GlcNAc(b1-3)Gal(b1-4)GlcNAc(b1-3)Gal(b1-4)GlcNAc(b1-3)Gal(b1-4)GlcNAc(b1-2)Man(a1-3)]Man(b1-4)GlcNAc(b1-4)[Fuc(a1-6)]GlcNAc
# In short: as §1
# [3] = biological target: Gal(b1-4)GlcNAc(b1-3)Gal(b1-4)GlcNAc(b1-3)Gal(b1-4)GlcNAc(b1-3)Gal(b1-4)GlcNAc(b1-3)Gal(b1-4)GlcNAc(b1-2)Man(a1-3)[Gal(b1-4)GlcNAc(b1-3)Gal(b1-4)GlcNAc(b1-3)Gal(b1-4)GlcNAc(b1-3)Gal(b1-4)GlcNAc(b1-3)Gal(b1-4)GlcNAc(b1-2)Man(a1-6)]Man(b1-4)GlcNAc(b1-4)GlcNAc
# In short: as §1
# [4] = biological target: Gal(b1-4)GlcNAc(b1-3)Gal(b1-4)GlcNAc(b1-3)Gal(b1-4)GlcNAc(b1-3)Gal(b1-4)GlcNAc(b1-3)Gal(b1-4)GlcNAc(b1-2)Man(a1-3)[Gal(b1-4)GlcNAc(b1-3)Gal(b1-4)GlcNAc(b1-3)Gal(b1-4)GlcNAc(b1-3)Gal(b1-4)GlcNAc(b1-3)Gal(b1-4)GlcNAc(b1-2)Man(a1-6)]Man(b1-4)GlcNAc(b1-4)[Fuc(a1-6)]GlcNAc
# In short: as §1
# [5] = biological target: Gal(b1-4)GlcNAc(b1-3)Gal(b1-4)GlcNAc(b1-3)Gal(b1-4)GlcNAc(b1-3)Gal(b1-4)GlcNAc(b1-3)Gal(b1-4)GlcNAc(b1-2)[Gal(b1-4)GlcNAc(b1-3)Gal(b1-4)GlcNAc(b1-3)Gal(b1-4)GlcNAc(b1-3)Gal(b1-4)GlcNAc(b1-3)Gal(b1-4)GlcNAc(b1-6)]Man(a1-6)[Gal(b1-4)GlcNAc(b1-3)Gal(b1-4)GlcNAc(b1-3)Gal(b1-4)GlcNAc(b1-3)Gal(b1-4)GlcNAc(b1-3)Gal(b1-4)GlcNAc(b1-2)Man(a1-3)]Man(b1-4)GlcNAc(b1-4)[Fuc(a1-6)]GlcNAc
# In short: as §1
# [6] = biological target: Gal(b1-4)GlcNAc(b1-3)Gal(b1-4)GlcNAc(b1-3)Gal(b1-4)GlcNAc(b1-3)Gal(b1-4)GlcNAc(b1-3)Gal(b1-4)GlcNAc(b1-3)Gal(b1-4)GlcNAc(b1-2)Man(a1-3)[Gal(b1-4)GlcNAc(b1-3)Gal(b1-4)GlcNAc(b1-3)Gal(b1-4)GlcNAc(b1-3)Gal(b1-4)GlcNAc(b1-3)Gal(b1-4)GlcNAc(b1-3)Gal(b1-4)GlcNAc(b1-2)Man(a1-6)]Man(b1-4)GlcNAc(b1-4)GlcNAc
# In short: as §1
# [7] = biological target: Gal(b1-4)GlcNAc(b1-3)Gal(b1-4)GlcNAc(b1-3)GalNAc
# In short: as §1
# [8] = biological target: Gal(b1-4)GlcNAc(b1-3)Gal(b1-4)GlcNAc(b1-3)[Gal(b1-4)GlcNAc(b1-3)Gal(b1-4)GlcNAc(b1-6)]GalNAc
# In short: as §1
# [9] = biological target: Gal(b1-4)GlcNAc(b1-3)Gal(b1-4)GlcNAc(b1-6)[Gal(b1-3)]GalNAc
# In short: as §1
# [10] = biological target: Gal(b1-4)GlcNAc(b1-3)Gal(b1-4)[Fuc(a1-3)]GlcNAc(b1-3)Gal(b1-4)[Fuc(a1-3)]GlcNAc
# In short: as §1
# [11] = biological target: Gal(b1-4)GlcNAc(b1-3)GalNAc
# In short: as §1
# [12] = biological target: Gal(b1-4)GlcNAc(b1-3)[Fuc(a1-3)GlcNAc(b1-6)]Gal(b1-4)Glc
# In short: as §1
# [13] = biological target: Gal(b1-4)GlcNAc(b1-3)[Gal(b1-4)GlcNAc(b1-6)]Gal(b1-4)GlcNAc
# In short: as §1
# [14] = biological target: Gal(b1-4)GlcNAc(b1-3)[GlcNAc(b1-6)]Gal(b1-4)GlcNAc
# In short: as §1
# [15] = biological target: Gal(b1-4)GlcNAc(b1-6)Gal(b1-4)GlcNAc
# In short: as §1
# [16] = biological target: Gal(b1-4)GlcNAc(b1-6)GalNAc
# In short: as §1
# [17] = biological target: Gal(b1-4)GlcNAc(b1-6)[Gal(b1-3)]GalNAc
# In short: as §1
# [18] = biological target: Gal(b1-4)GlcNAc(b1-6)[Gal(b1-4)GlcNAc(b1-3)]GalNAc
# In short: as §1
# [19] = biological target: Gal(b1-4)GlcNAc6P
# In short: as §1
# [20] = biological target: Gal(b1-6)Gal
# In short: as §1
# [21] = biological target: Gal3S(b1-3)GalNAc
# In short: as §1
# [22] = biological target: Gal3S(b1-3)GlcNAc
# In short: as §1
# [23] = biological target: Gal3S(b1-3)[Fuc(a1-4)]GlcNAc
# In short: as §1
# [24] = biological target: Gal3S(b1-4)Glc
# In short: as §1
# [25] = biological target: Gal3S(b1-4)Glc6S
# In short: as §1
# [26] = biological target: Gal3S(b1-4)GlcNAc
# In short: as §1
# [27] = biological target: Gal3S(b1-4)[Fuc(a1-3)]Glc6S
# In short: as §1
# [28] = biological target: Gal3S(b1-4)[Fuc(a1-3)]GlcNAc
# In short: as §1
# [29] = biological target: Gal3S(b1-4)[Fuc(a1-3)]GlcNAc6S
# In short: as §1
# [30] = biological target: Gal3S4S(b1-4)GlcNAc
# In short: as §1
# [31] = biological target: Gal3S6S(b1-4)GlcNAc
# In short: as §1
# [32] = biological target: Gal3S6S(b1-4)GlcNAc6S
# In short: as §1
# [33] = biological target: Gal4S(b1-4)GlcNAc
# In short: as §1
# [34] = biological target: Gal4S6S(b1-4)GlcNAc
# In short: as §1
# [35] = biological target: Gal6P(b1-4)GlcNAc
# In short: as §1
# [36] = biological target: Gal6S(b1-3)GlcNAc
# In short: as §1
# [37] = biological target: Gal6S(b1-3)GlcNAc6S
# In short: as §1
# [38] = biological target: Gal6S(b1-4)Glc
# In short: as §1
binder,measurement,setting,value
B1,glycan array binding signal (z-score),[1],0.462
same,glycan array binding signal (z-score),[2],0.871
same,glycan array binding signal (z-score),[3],0.072
same,glycan array binding signal (z-score),[4],0.144
same,glycan array binding signal (z-score),[5],0.919
same,glycan array binding signal (z-score),[6],0.71
same,glycan array binding signal (z-score),[7],0.01
same,glycan array binding signal (z-score),[8],0.562
same,glycan array binding signal (z-score),[9],0.312
same,glycan array binding signal (z-score),[10],-0.263
same,glycan array binding signal (z-score),[11],-0.367
same,glycan array binding signal (z-score),[12],0
same,glycan array binding signal (z-score),[13],-0.436
same,glycan array binding signal (z-score),[14],0.015
same,glycan array binding signal (z-score),[15],-0.084
same,glycan array binding signal (z-score),[16],0.113
same,glycan array binding signal (z-score),[17],-0.17
same,glycan array binding signal (z-score),[18],-0.047
same,glycan array binding signal (z-score),[19],-0.29
same,glycan array binding signal (z-score),[20],-0.194
same,glycan array binding signal (z-score),[21],-0.283
same,glycan array binding signal (z-score),[22],0.217
same,glycan array binding signal (z-score),[23],0.129
same,glycan array binding signal (z-score),[24],-0.263
same,glycan array binding signal (z-score),[25],-0.183
same,glycan array binding signal (z-score),[26],0.307
same,glycan array binding signal (z-score),[27],0.584
same,glycan array binding signal (z-score),[28],0.375
same,glycan array binding signal (z-score),[29],0.094
same,glycan array binding signal (z-score),[30],-0.393
same,glycan array binding signal (z-score),[31],-0.282
same,glycan array binding signal (z-score),[32],-0.162
same,glycan array binding signal (z-score),[33],-0.395
same,glycan array binding signal (z-score),[34],-0.13
same,glycan array binding signal (z-score),[35],-0.534
same,glycan array binding signal (z-score),[36],0.772
same,glycan array binding signal (z-score),[37],-0.319
same,glycan array binding signal (z-score),[38],-0.01
